± gives the standard deviation of the averaged measurements. In all, about 33,000 sequences were measured (“E-score (dimensionless, -0.5 to 0.5)”: median about -0.049, highest 2% from about 0.37 on). The list shows a part of the results.
Each sequence was assayed on T1, PmTbr T-box DNA-binding domain (GST fusion) (assay: PBM E-score of 8-mer (E-score (dimensionless, -0.5 to 0.5)); Tbr is Tbrain of the sea star Patiria miniata (Pm) or the sea urchin Strongylocentrotus purpuratus (Sp); higher = stronger binding preference; most listed sequences are background and not binding sites). Conditions: the construct has about 5 more residues each side.
T1 sequence: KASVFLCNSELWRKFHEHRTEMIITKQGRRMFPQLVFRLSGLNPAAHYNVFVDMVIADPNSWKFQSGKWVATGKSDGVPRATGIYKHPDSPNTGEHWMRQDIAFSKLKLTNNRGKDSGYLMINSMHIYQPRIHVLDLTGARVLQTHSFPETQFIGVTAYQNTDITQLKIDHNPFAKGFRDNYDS
Outline: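 GST-fused Tbr T-box DNA-binding domains (the whole T-box plus about five flanking residues) were expressed in BL21 E. coli at 20 °C and purified by glutathione affinity chromatography. Universal Agilent oligonucleotide arrays were made double-stranded by primer extension, incubated with 200 nM protein in PBS (pH 7.5), then scanned and quantified. Every ungapped 8-mer was scored from probe intensities. The Universal PBM Analysis Suite gave each word an enrichment E-score, averaged over duplicate arrays.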

Sequence | PBM E-score of 8-mer
CTGCCTCA | -0.0422 ± 0.12
GATTAGCA | 0.126 ± 0.014
GTTAAACA | 0.00153 ± 0.043
CGCTAATA | 0.239 ± 0.0096
ACCGTGAT | 0.1 ± 0.028
ACCTGACG | 0.221 ± 0.063
ACCGGGTG | 0.115 ± 0.029
GCACCCCC | 0.226 ± 0.047
CTGACCAA | -0.304 ± 0.049
AGCAACCT | -0.0154 ± 0.04
GGGGAACC | -0.178 ± 0.035
TGGTCACA | 0.257 ± 0.053
AGCAGTAC | -0.154 ± 0.02
CTCTCGTA | -0.0547 ± 0.0012
ACCACGTC | -0.0168 ± 0.081
ACCACATC | -0.0561 ± 0.029
ATGTTGAG | -0.0139 ± 0.007
AACTTTGG | -0.0601 ± 0.034
GCAATTCC | 0.0588 ± 0.022
AACAGGTG | 0.4042 ± 0.00081
CCAAATCG | 0.0834 ± 0.071
CCTCAGAC | -0.101 ± 0.045
ACAATACC | -0.103 ± 0.05
GGGGTACA | -0.298 ± 0.0097
TACGCATA | -0.15 ± 0.092

Sequence | PBM E-score of 8-mer
CTTGTCGC | 0.277 ± 0.012
TATCGAAA | 0.0388 ± 0.023
ACTGAGAT | -0.121 ± 0.011
AGGGAACA | -0.263 ± 0.028
AACTAAAG | -0.0861 ± 0.047
AAATATGG | -0.199 ± 0.047
CTTGGGCC | -0.148 ± 0.032
ATCAAGGG | -0.0226 ± 0.041
CAGGATTA | -0.117 ± 0.098
GTATCAAC | 0.0828 ± 0.072
ACGACGAT | -0.0363 ± 0.012
CGAGCACC | -0.0536 ± 0.12
CCTGACTC | -0.198 ± 0.029
CATCTTCA | -0.0506 ± 0.053
CAGAGATG | -0.121 ± 0.019
AGACCTTC | -0.269 ± 0.022
GCCCATCA | -0.163 ± 0.056
AACTGAAA | 0.04041 ± 0.00021
CTCTCGCA | 0.253 ± 0.0067
CCCAAGAC | -0.166 ± 0.062
GCGCCCGC | 0.024 ± 0.059
GCGATCCC | 0.156 ± 0.074
CCAGCGCG | 0.108 ± 0.018
CATCGGTC | -0.225 ± 0.058
GCAAGAAC | -0.077 ± 0.039

Sequence | PBM E-score of 8-mer
TCAATTGA | -0.0679 ± 0.029
CAGAAATA | -0.135 ± 0.074
CTCCGAAG | 0.0723 ± 0.057
AACGGCAC | 0.167 ± 0.0065
GAGCTCGA | -0.143 ± 0.031
ATGCCCTC | -0.198 ± 0.051
CCTTTGTC | 0.166 ± 0.0072
ATCATCGC | 0.0827 ± 0.033
CTACAGAA | 0.0244 ± 0.029
CCCTTGTA | -0.116 ± 0.049
TCCGGGAA | -0.24 ± 0.05
CAGAGATC | -0.156 ± 0.043
TAGGCACA | 0.0942 ± 0.044
GTGATTTA | 0.143 ± 0.0061
AATCGTGG | -0.0756 ± 0.096
CCCTCACG | 0.133 ± 0.0098
AATTTTTG | -0.0693 ± 0.0047
AGACGACG | -0.0358 ± 0.04
ATCCAGTA | 0.0505 ± 0.048
GCATGCCC | -0.224 ± 0.014
GGGTTGAC | 0.109 ± 0.014
AAAAGGAG | 0.0598 ± 0.069
AAGTCAAA | -0.0539 ± 0.12
TGAGGACA | 0.034 ± 0.011
AAGCACGG | -0.206 ± 0.036

Sequence | PBM E-score of 8-mer
GCTCGCAC | 0.42 ± 0.025
TCTAACCA | -0.146 ± 0.0014
CGGCCGGA | -0.195 ± 0.067
CCTACAGC | -0.089 ± 0.04
AAACATTA | -0.207 ± 0.019
CCCACAGG | 0.0869 ± 0.067
CCGCTTAG | -0.233 ± 0.072
ACGCACTA | -0.0928 ± 0.029
AGCGCGGA | 0.125 ± 0.017
CTTTGCCC | -0.12 ± 0.005
ATGTATGG | -0.1101 ± 0.00014
CCCCTGAA | -0.175 ± 0.063
AGACCCCC | -0.33 ± 0.033
ATCTATTA | -0.193 ± 0.014
CATCCAAG | -0.0542 ± 0.0078
CCTTCAAG | -0.188 ± 0.024
AGCACGAT | 0.083 ± 0.032
AAGGGTAG | 0.0196 ± 0.05
GCTAGTTA | 0.115 ± 0.036
GCAGAATA | -0.113 ± 0.055
CAACTCAC | 0.123 ± 0.049
ACGAGCCC | -0.0405 ± 0.074
TGAACAAA | -0.0442 ± 0.086
ATTCTATG | -0.17 ± 0.04
AGGATATG | -0.239 ± 0.013

Sequence | PBM E-score of 8-mer
ATACCGAA | -0.129 ± 0.12
CAGTCTGG | -0.183 ± 0.073
ATACGGGC | -0.123 ± 0.0081
ATGTTCAA | -0.131 ± 0.037
CCGCCTTA | -0.102 ± 0.021
ACAATGCA | -0.0697 ± 0.0045
CAGGTTGG | 0.133 ± 0.012
CCGCACGG | -0.162 ± 0.049
CGAAAGCC | -0.0801 ± 0.046
CGTGGTTA | -0.0157 ± 0.13
AAGACACG | 0.153 ± 0.012
AGTCCGTC | -0.107 ± 0.021
AAGTTCCT | -0.0443 ± 0.12
AGTACTAA | -0.101 ± 0.061
AGATTCCA | -0.0318 ± 0.013
ATAGTAGA | -0.27 ± 0.06
ACGATGCA | -0.102 ± 0.0098
AGTATCTG | -0.212 ± 0.029
ACTGTTGA | 0.123 ± 0.062
TATATGAA | -0.24 ± 0.018
GAGGTATA | -0.0519 ± 0.068
GGCCAACC | -0.0323 ± 0.0049
TATACGAA | -0.237 ± 0.031
AATGATAA | 0.0274 ± 0.032
ACACTCCT | 0.228 ± 0.019

Sequence | PBM E-score of 8-mer
AATTCCAC | 0.0936 ± 0.017
TCTGGCCA | -0.246 ± 0.046
ATGGGGCG | 0.0273 ± 0.067
GCGATACC | 0.204 ± 0.013
CCTTAGCA | 0.233 ± 0.046
AGAACTGA | -0.246 ± 0.072
ATCGACGC | 0.176 ± 0.027
GGCCAGAC | -0.265 ± 0.087
ATTTAGTA | -0.18 ± 0.034
GGATTAAA | -0.0843 ± 0.021
GCGGTTGA | -0.0648 ± 0.031
AAACGTAT | -0.162 ± 0.024
ACTGGCAA | 0.106 ± 0.035
ACCGTAAA | -0.133 ± 0.057
GCGCAAAA | 0.127 ± 0.053
AAATGTGG | 0.0797 ± 0.052
CACGTTGC | 0.106 ± 0.088
AGGGAGTA | -0.0737 ± 0.034
AAGTTCAT | -0.0912 ± 0.041
GAGCGCGC | 0.0105 ± 0.017
GGACCCCC | -0.292 ± 0.044
ACTTGCAC | 0.268 ± 0.0028
AGACCACC | -0.134 ± 0.033
AGGCGGCC | -0.268 ± 0.055
AGGTCGAC | 0.0918 ± 0.031

Sequence | PBM E-score of 8-mer
GGGTACTA | -0.193 ± 0.027
AACGTTAG | -0.0634 ± 0.026
CACTCCTA | 0.0198 ± 0.016
TCCGCACA | 0.104 ± 0.058
ATAAAAAA | -0.114 ± 0.14
CGTGGCGA | 0.0853 ± 0.039
CTAAATTC | -0.0346 ± 0.053
CGGTTCAC | 0.153 ± 0.021
AAGACGTA | -0.0429 ± 0.003
AAGCGGAT | 0.0606 ± 0.055
GACTAAGA | -0.204 ± 0.013
ATGAGGTA | -0.093 ± 0.027
ATCAGTTA | -0.137 ± 0.022
CTTTTCTA | 0.0811 ± 0.085
ACGATGAT | 0.0681 ± 0.019
AGGTGGAT | 0.104 ± 0.022
CTTCTAAA | -0.0714 ± 0.043
TAGACTGA | -0.0772 ± 0.027
CGATCCAG | -0.0702 ± 0.018
GTTCGGCA | -0.118 ± 0.015
ACTCACCA | -0.0425 ± 0.12
ACGCTGAG | -0.127 ± 0.031

— the supplement of paper PMC4166925
